The text below walks through data of PubChem BioAssay AID1346428 (National Center for Advancing Translational Sciences (NCATS), 2018).

Out of some 48,000 compounds screened, about 1,200 (2.5%) were called active. Roughly 2% stayed inconclusive and do not appear here.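 How the source made its calls: active means activation of at least 60% and not above a set upper limit (about 1 call in 100 departs from these limits); inconclusive means activation of 40% to 60%, or above that upper limit; inactive means activation under 40%.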 This is one part of the list.

Chain of UniProt O75388 (O75388 whole entry, looked up): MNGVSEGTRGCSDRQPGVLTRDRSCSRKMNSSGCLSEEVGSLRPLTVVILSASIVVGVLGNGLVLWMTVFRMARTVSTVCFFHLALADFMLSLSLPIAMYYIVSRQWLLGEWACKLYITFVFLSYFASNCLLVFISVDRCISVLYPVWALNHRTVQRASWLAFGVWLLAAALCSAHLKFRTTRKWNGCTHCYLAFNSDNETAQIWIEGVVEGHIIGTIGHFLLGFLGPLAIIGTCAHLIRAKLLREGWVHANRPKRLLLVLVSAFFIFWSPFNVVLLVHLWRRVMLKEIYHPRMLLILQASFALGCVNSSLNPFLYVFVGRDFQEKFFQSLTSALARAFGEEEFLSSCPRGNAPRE

The assay has as its target Probable G-protein coupled receptor 32 (Homo sapiens) (UniProt O75388). In words: qHTS for Agonists of Human Resolvin D1 Receptor DRV1. Particulars: CHO-K1 GPR32 beta-arrestin PathHunter luminescence, 90 min; at 76.9 µM; hits give high values; zero percent set by DMSO-only wells. In outline:
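Beta-arrestin recruitment read-out: luminescence from complemented beta-Gal in CHO-K1 GPR32 PathHunter cells, measured 1 h after detection reagent at ambient temperature following 90 min compound exposure at 37 °C; DMSO served as basal (EC0) control.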
A general note: Quantitative high-throughput screening tests each substance at several concentrations.
In the case of `COc1c(C)c2c(c(O)c1C/C=C(\C)CCC(=O)O)C(=O)OC2`, the activation is inactive: 6.56%.

For `COc1ccc(C2(CNC(=O)C(=O)Nc3ccc(C)c(Cl)c3)CCCC2)cc1OC`, the activation is inactive: -12.7%.

In the case of `CCN(CC)S(=O)(=O)c1nnc(NC(=O)COc2ccccc2)s1`, the activation is inactive: 1.36%.

`CC(=O)c1ccc(N2C(=O)N(Cc3ccc(F)cc3)c3ccccc3S2(=O)=O)cc1`: the activation is inactive: -6.38%.

Take `CC(C)(C)OC(=O)N1CCC(c2c(C(=O)NCCN3CCOCC3)cnn2-c2cccc(F)c2)CC1`: the activation is inactive: -0.536%.

`CCN1CCN(c2oc(-c3ccc(COc4ccc(OC)cc4)o3)nc2C#N)CC1`: the activation was inactive: -14.2%.

Turning to `Clc1ccccc1-c1nc(-c2ccncc2)no1`, the activation is inactive: 45.3%.

Turning to `COc1ccc(OC)c(C(=O)CN2C(=O)N(c3cc(C)cc(C)c3)S(=O)(=O)c3ccccc32)c1`, the activation is inactive: -35.1%.

For `Clc1cccc(-n2ncc3c(NCCC4=CCCCC4)ncnc32)c1`, the activation is inactive: -7.42%.

In the case of `COC(=O)c1c(NC(=O)C2c3ccccc3Oc3ccccc32)sc2c1CCC(C)C2` (stereo unspecified), the activation was inactive: -3.06%.

Consider `Nc1nonc1-c1nc2ccccc2n1Cc1ccc(Br)cc1`, for which the activation was inactive: 13%.

Take `CC(=O)N1c2ccccc2C(=O)C1N1CCN(c2cccc(C)c2C)CC1` (stereo unspecified): the activation was inactive: -18.8%.

As for `Cc1ccc(NC(=O)CSc2nc3c(c(=O)[nH]2)CN(Cc2ccccc2)CC3)cc1Cl`, the activation was inactive: 2.84%.

In the case of `Nc1nc2nc(-c3ccc(Cl)cc3)cc(C(F)(F)F)n2n1`, the activation was inactive: 0.0918%.

`CC(CNC(=O)c1sc2ncccc2c1-n1cccc1)c1ccccc1` (stereo unspecified): the activation was inactive: -8.99%.

With `Cc1ccc(NC(=O)C2=CC(c3cccs3)=NS(=O)(=O)N2C)cc1`, the activation is inactive: -4.36%.

Take `Cc1nc2scc(C)n2c(=O)c1S(=O)(=O)Nc1ccc(N2CCN(C(=O)C(C)C)CC2)cc1`: the activation is inactive: 5.43%.

`CC1(C)CC(=O)c2cc(C(=O)Nc3ccc(Cl)cc3)c(=O)[nH]c2C1`: the activation was inactive: 10.2%.

Take `O=C(CC(c1cccs1)N1Cc2ccccc2C1=O)Nc1ccccc1F` (stereo unspecified): the activation is inactive: -1.14%.

As to `Cc1ccc(CSC2=Nc3ccccc3C3=NC(CCC(=O)NCCc4ccccc4)C(=O)N23)cc1` (stereo unspecified), the activation is inactive: -34.8%.

With `COC(=O)c1cc2occc2n1Cc1ccc(F)cc1Cl`, the activation was inactive: -32.6%.

Regarding `Cc1ccc(NC(=O)CN2C(=O)CSc3ccc(S(=O)(=O)N(C)C)cc32)cc1C`, the activation was inactive: -5.72%.

On to `CCOc1cc(C2C(C(N)=O)=C(C)Nc3ncnn32)cc(Br)c1O` (stereo unspecified), for which the activation was inactive: 5.22%.

On to `Cc1ccc(C(=O)NCCSc2c(C)[nH]c3ccccc23)cc1C`, for which the activation is inactive: 6.61%.

As for `COc1ccc(-c2nc(S(=O)(=O)c3ccc(Cl)cc3)c(N3CCCCCC3)o2)cc1`, the activation was inactive: -46.2%.

In the case of `Cc1ccc(-c2nn(CCC(=O)Nc3ccc(Cl)c(Cl)c3)c(=O)c3ccccc23)cc1`, the activation is inactive: 16.1%.

As to `O=C(Nc1ccc2oc(-c3cccc4c(Br)cccc34)nc2c1)c1ccc(Br)cc1`, the activation is inactive: -9.3%.

As for `CC(=O)c1[nH]c(C)c(C(=O)NCc2ccc(Cl)cc2)c1C`, the activation was inactive: 3.43%.

For `COc1cc(C)c(S(=O)(=O)Nc2cccc(-c3ccc(N4CCCC4)nn3)c2)cc1C`, the activation was inactive: 29.9%.

Regarding `Cc1cc(F)ccc1NC(=O)CCS(=O)(=O)c1cccc2nsnc12`, the activation was inactive: -6.18%.

Turning to `CCN1C(=O)c2ccccc2S(=O)c2ccc(C(=O)N3CCN(c4ccc(F)cc4)CC3)cc21` (stereo unspecified), the activation is inactive: 0.384%.

With `Cc1cccc(-c2nc(-c3ccc4c(c3)[nH]c(=O)n4C)no2)c1`, the activation is inactive: 2.26%.

Consider `Cc1ccccc1CN1C(=O)c2ccccc2Sc2ccc(C(=O)N3CCOCC3)cc21`, for which the activation was inactive: -21.5%.

Take `COc1ccccc1-c1c(C(F)(F)F)oc2c(CN3CCCCC3C)c(O)ccc2c1=O` (stereo unspecified): the activation was inactive: -5.12%.

Regarding `Cc1cccc(NC(=O)CSc2nc3c(oc4ccccc43)c(=O)n2-c2ccccc2)c1C`, the activation is inactive: -1.99%.

`CCc1cc(=O)oc2cc(C)c3c(-c4ccc(F)cc4)coc3c12`: the activation was inactive: 0.505%.

Take `CCCN(CCC)CCCNC(=O)c1cc2c(-c3ccc(Cl)cc3)nn(C)c2s1`: the activation was inactive: -1.75%.

As for `Cc1ccc(S(=O)(=O)N2CCC(C(=O)Nc3cc(C)ccc3C)CC2)cc1`, the activation is inactive: 13.3%.

Regarding `COc1ccc(Cn2c(=O)c3oc4ccccc4c3n(Cc3ccccc3)c2=O)cc1`, the activation was inactive: -15%.

On to `CCN1CCCC(OC(=O)C(c2ccccc2)c2ccccc2)C1` (stereo unspecified), for which the activation is inactive: -1.15%.

As to `COc1cc(-c2cc3n(C)c(C)c(CCC(=O)Nc4ccc(F)cc4)c(=O)n3n2)cc(OC)c1OC`, the activation was inactive: -1.57%.

On to `Nc1ccc(C(=O)O)cc1`, for which the activation was inactive: 14.6%.

Regarding `O=C(CSc1c2c(nc3ccccc13)CCC2)Nc1ccc(F)cc1F`, the activation is inactive: -26.4%.

For the compound `Cc1ccc(OCCSc2nc(-c3cccs3)nc3cc(=O)[nH]n23)cc1Cl`, the activation was inactive: 1.06%.

Take `CCOC(=O)c1[nH]c(C)c(CCC(=O)NCc2cccc(Cl)c2)c1C`: the activation is inactive: -7.9%.

For `COC(=O)c1ccc([C@@H]2Nc3c(cccc3C(F)(F)F)[C@@H]3C=CC[C@@H]32)cc1`, the activation is inactive: -24.1%.

As to `COc1ccccc1CCNC(=O)Cc1c(C)c2c(O)cc(C)cc2oc1=O`, the activation was inactive: -0.368%.

In the case of `COc1ccccc1NC(=O)c1cc(S(=O)(=O)N2CCc3ccccc32)ccc1F`, the activation was inactive: -12.2%.

As to `COc1ccc(NC(=O)c2cc3c(=O)n(Cc4cccnc4)ccc3nc2C)cc1Cl`, the activation is inactive: -0.688%.

Consider `C=Cc1ccc(Cn2c(=O)cc(C)c3c(C)nn(C)c32)cc1`, for which the activation was inactive: 10.7%.

Consider `Cc1cccc(N2CCN(c3c4c(nc5nncn35)CCC4)CC2)c1C`, for which the activation is inactive: -8.22%.

As to `CN(C)c1ccc(C(CNS(=O)(=O)c2ccc(F)cc2)N2CCc3ccccc32)cc1` (stereo unspecified), the activation is inactive: -31.6%.

Consider `COc1ccc(S(=O)(=O)c2cn(Cc3ccccc3)c3ccc(OC)cc3c2=O)cc1`, for which the activation was inactive: -15.3%.

For `COc1cc(-c2nnc(SCC(=O)Oc3ccccc3Cl)o2)cc(OC)c1OC`, the activation was inactive: -2.67%.

For the compound `O=[N+]([O-])c1nccn1CO[C@@H](CO)[C@H](O)CO`, the activation was inactive: -1.14%.

As for `O=c1c(N2CCc3ccccc3C2)csc2ccc(Br)cc12`, the activation is inactive: -42.5%.

On to `COc1ccccc1NC(=O)c1cc(C2CC2)nc2c1c(C)nn2-c1ccc(C)cc1`, for which the activation is inactive: -4.36%.

With `CC(C)CCN(Cc1ccco1)C(=O)Cn1ncc2c([nH]c3ccccc32)c1=O`, the activation was inactive: 16.4%.

Consider `Cc1cccc(C(=O)Nc2ccc(N3CCN(c4ccc(F)cc4)CC3)c(C(=O)O)c2)c1`, for which the activation is inactive: -7.54%.

With `CCOC(=O)c1cc(-c2ccccc2)n(CCCC(=O)Nc2cc(C)ccc2OC)c1C`, the activation is inactive: -30.9%.

`COc1ccccc1Cc1nc2ccccc2nc1SCC(=O)N1CCC(C)CC1`: the activation was active: 64.4%.

With `COc1ccc(OC)c(NC(=O)CCc2nc(-c3ccc(C)cc3)no2)c1`, the activation is inactive: 25.9%.

As for `Cc1c(C(=O)N2CCC(C)CC2)c(S(=O)(=O)N2CCN(c3cccc(Cl)c3)CC2)c(C)n1C`, the activation was inactive: -33.8%.

Take `Cc1ccn2c(Nc3ccc4c(c3)OCCO4)c(-c3ccc(C)s3)nc2c1`: the activation is inactive: -4.6%.

`Cc1ccc2nc(SCC(=O)Nc3ccc(C#N)cc3)[nH]c2c1`: the activation was inactive: 45%.

In the case of `COc1ccc(Nc2cc(C(=O)NCc3ccccc3)c3ccccc3n2)cc1OC`, the activation is inactive: -4.58%.

Take `O=c1c(S(=O)(=O)c2ccc(Cl)cc2)cn(Cc2ccc(F)cc2)c2ccc(F)cc12`: the activation is inactive: -22.8%.

With `CCOc1ccc(C(=O)NCc2ccc3c(c2)CCN3C(=O)c2ccc(C)cc2)cc1OCC`, the activation was inactive: -19.9%.

For the compound `COc1ccc(S(=O)(=O)c2cn(Cc3ccccc3)c3cc(F)c(F)cc3c2=O)cc1`, the activation was inactive: -6.2%.

Regarding `CN1C(=O)c2[nH]nc(-c3ccc(F)cc3)c2C1c1ccccn1` (stereo unspecified), the activation is inactive: -0.443%.

With `Cc1cc(OCC(=O)NCC2(N3CCOCC3)CCCCC2)ccc1Cl`, the activation is inactive: -23.8%.

Regarding `CCc1noc(-c2ccc(N3CCCCC3)c([N+](=O)[O-])c2)n1`, the activation is inactive: 0%.

For the compound `COc1ccccc1CN1CCC(CNC(=O)c2cnn(-c3ccc(C)c(C)c3)c2C2CCN(C(=O)OC(C)(C)C)CC2)CC1`, the activation is inactive: -20%.

Take `CCc1cccc(NC(=O)C(CC(C)C)NS(=O)(=O)c2ccc3c(c2)oc(=O)n3C)c1` (stereo unspecified): the activation is inactive: 2.82%.

As to `CCC(=O)N1CCc2cc(CNC(=O)Nc3cc(Cl)ccc3C(=O)OC)ccc21`, the activation is inactive: -10.6%.

In the case of `Brc1ccc2nc(-c3ccccc3)c(Nc3ccc4c(c3)OCO4)n2c1`, the activation was inactive: -6.33%.

As for `CCCN(CCC)CCNC(=O)c1cc(-c2ccc(Br)s2)nc2ccccc12`, the activation was inactive: -5.49%.

As to `O=C(Nc1cccc(Cl)c1)C1CCCN1S(=O)(=O)c1cccc2cccnc12` (stereo unspecified), the activation was inactive: -8.08%.

Consider `Cn1nnnc1SCCNCc1ccc(OCc2ccc(Cl)cc2)cc1`, for which the activation is inactive: 49.8%.

As to `COc1ccccc1-c1nnc(SCC(=O)c2ccc(F)cc2)n1-c1ccccc1`, the activation is active: 69.9%.

Regarding `CCc1ccc(CNC(=O)CN2C(=O)CCn3nc(-c4cn(C)c5ccccc45)cc32)cc1`, the activation is inactive: -9.62%.

Take `Cc1cc(Cl)ccc1OCc1cc(=O)n2c3c(sc2n1)CCCC3`: the activation is inactive: 16.5%.

On to `Cc1ccc(CN2C(=O)c3ccccc3Sc3ccc(C(=O)NCCCN4CCOCC4)cc32)cc1`, for which the activation is inactive: -9.79%.

Turning to `CCc1ccc(C2=C(C)C(N3CCC(C(=O)NCCc4ccco4)CC3)=NS2(=O)=O)cc1`, the activation is inactive: -13.9%.

With `COc1cccc(OCC(=O)Nc2nnc3n2CCS3)c1`, the activation was inactive: -24.8%.

For `Cc1oc(-c2cccc(Cl)c2)nc1CN1CCC(C(=O)NCCc2ccc(Cl)cc2)CC1`, the activation was inactive: -2.52%.
